What was measured:
[1] = molecular target: T1, Oxa-23 (Acinetobacter baumannii); assay: Phage expression library screen (serological expression cloning) for antigen identification; assay type: binding; details: phage expression library of genomic DNA from strains BAL 084 and BAL 276
T1 construct: endogenous in cells; host or cells: OMVs of GC2 A. baumannii clinical strains

[2] = molecular target: T1, Oxa-23 (Acinetobacter baumannii); assay: Specific binding to Oxa-23 on OMVs (summary statement); details: on outer membrane vesicles (OMVs) of Acinetobacter baumannii bacteria

B1: 1349 (antibody)
heavy: QITLKESGPTLVKPTQTLTLTCTFSGFSLSTSGVGVGWIRQPPGKALEWLALIYWDDDKRYSPSLKSRLTITKDTSKNQVVLTMTNMDPVDTATYYCAHSYYYDSSDSYYFDYWGQGTLVTVSS[human IgG1 constant region cut from this listing]
light: DIQLTQSPSFLSASVGDRVTITCWASQGISSRLAWYQQKPGKAPKLLIYAASTLQSGVPSRFSGSGSGTEFTLTISSLQPEDFGNYYCQQFNTYPFTFGPGTKVDIKRTVAAPSVFIFPPSDEQLKSGTASVVCLLNNFYPREAKVQWKVDNALQSGNSQESVTEQDSKDSTYSLSSTLTLSKADYEKHKVYACEVTHQGLSSPVTKSFNRGEC
antigen bound, elucidated by sequencing the binding phage [1]: bound Oxa-23 | specific binding to Oxa-23 [2]: specifically bind to Oxa-23
